System: Clostridium difficile strain 4118 (BI/NAP1/027)
Conditions: stationary-phase CD4118; for decrease in the number of CFUs in 24 h: 4× MIC; for time to eradicate >99.9% of viable cells: 16× MIC (rafoxanide 2 μg/mL, closantel 4 μg/mL, compound 8 1 μg/mL)

| Structure (SMILES) | decrease in the number of CFUs in 24 h | time to eradicate >99.9% of viable cells |
| --- | --- | --- |
| Cc1cc(C(C#N)c2ccc(Cl)cc2)c(Cl)cc1NC(=O)c1cc(I)cc(I)c1O (stereo not drawn) [Closantel] | 2.2 log | 24 h |
| O=C(Nc1ccc(Oc2ccc(Cl)cc2)cc1)c1cc(Cl)cc(Cl)c1O [Compound 8, 3,5-Dichloro-N-(4-(4-chlorophenoxy)phenyl)-2-hydroxybenzamide] | 2.4 log | 24 h |
| O=C(Nc1ccc(Oc2ccc(Cl)cc2)c(Cl)c1)c1cc(I)cc(I)c1O [Rafoxanide, rafoxanide, reference compound] | 2.7 log | 6 h |

Source: patent US10792272B2, “Methods for treatment of Clostridium difficile infections” (priority 2016, dated 2020)
